According to the supplement of paper PMC5919970:
Counter-ions that a name gives are not always drawn. Over roughly 2,000 compounds, “fractional viability relative to vehicle” has its median near 0.92; the lowest 2% begin near 0.11. The list shows a part of the results.

System: TYKNU
Assay: fractional viability relative to vehicle; TYKNU is a high-grade serous ovarian cancer line; higher = less growth inhibition
Settings: 72 h, genotype: OPA1 knockout (sgOPA1 #2)
How it was run: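 TYKNU control cells or lentiCRISPRv2 knockout derivatives were plated at 500 cells per well in duplicate into drug-stamped 384-well plates holding a ~2100-compound library at 2 or 10 μM. Culture was in RPMI 1640 with 10% FBS at 37 °C in 5% CO2, with 72 h of drug treatment. Viability was measured by Cell Titer Glo luminescence, and the averaged duplicate treatment wells were normalised to duplicate control wells at the same plate position.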

In the case of `CSc1nc2cc(Cl)c(Oc3cccc(Cl)c3Cl)cc2[nH]1` [Triclabendazole], the fractional viability (2uM) is reported as 1.05 and the fractional viability (10uM) is reported as 0.871.

`CCCCCCCCCCCCCCCCn1cc[n+](Cc2ccccc2)c1C` showed a fractional viability (2uM) of 0.363 and a fractional viability (10uM) of 0.0434.

For `Cn1cnc2c(F)c(Nc3ccc(Br)cc3F)c(C(=O)NOCCO)cc21`, the fractional viability (2uM) was 0.631 and the fractional viability (10uM) was 0.428.

With `C#Cc1cccc(Nc2ncnc3cc(OCCOC)c(OCCO)cc23)c1` the fractional viability (2uM) was 1.13 and the fractional viability (10uM) was 0.833.

`COc1cc2nc(N3CCCC3)nc(NCCCCCN3CCCC3)c2cc1OC` was tested, and the fractional viability (2uM) was 0.679 and the fractional viability (10uM) was 0.0949.

In the case of `NC(=O)c1cnccn1` [Pyrazinamide], the fractional viability (2uM) is reported as 1.05 and the fractional viability (10uM) is reported as 1.03.

In the case of `Nc1nc(N)c(N=O)c(OCC2CCCCC2)n1`, the fractional viability (2uM) is reported as 0.974 and the fractional viability (10uM) is reported as 0.663.

Work on `CC(C)C[C@H](NC(=O)[C@H](Cc1ccccc1)C[C@@H](O)[C@H](Cc1ccccc1)NC(=O)OC(C)(C)C)C(=O)N[C@@H](Cc1ccccc1)C(N)=O` yielded a fractional viability (2uM) of 0.74 and a fractional viability (10uM) of 0.782.

Work on `CC(=O)O[C@H]1C(=O)[C@@]2(C)[C@H]([C@H](OC(=O)c3ccccc3)[C@]3(O)C[C@H](OC(=O)[C@H](O)[C@@H](NC(=O)c4ccccc4)c4ccccc4)C(C)=C1C3(C)C)[C@]1(OC(C)=O)CO[C@@H]1C[C@@H]2O` [Paclitaxel] yielded a fractional viability (2uM) of 0.717 and a fractional viability (10uM) of 0.773.

`NC(=O)c1cccc(-c2cccc(OC(=O)NC3CCCCC3)c2)c1` gave a fractional viability (2uM) of 0.981 and a fractional viability (10uM) of 0.995.

For `CN1CCC(Nc2nc(Nc3ccc(Oc4ccccc4)cc3)c3c(=O)[nH]cc(Br)c3n2)CC1`, the fractional viability (2uM) was 0.289 and the fractional viability (10uM) was 0.0528.

`CCCN(CCC)CCc1cccc2c1CC(=O)N2` [Ropinirole HCl] was tested, and the fractional viability (2uM) was 1.04 and the fractional viability (10uM) was 1.07.

`COc1ccc2cc([C@H](C)C(=O)O)ccc2c1` [Naproxen] showed a fractional viability (2uM) of 1.11 and a fractional viability (10uM) of 0.908.

`N#Cc1cc(CN2CCC(Nc3ncnc4sc(Cl)cc34)CC2)ccc1F` showed a fractional viability (2uM) of 0.83 and a fractional viability (10uM) of 0.84.

`C[C@]12CCC(=O)C=C1[C@@H]1C[C@@H]1[C@H]1[C@@H]3[C@@H]4C[C@@H]4[C@@]4(CCC(=O)O4)[C@@]3(C)CC[C@@H]12` [Drospirenone] was tested, and the fractional viability (2uM) was 1.1 and the fractional viability (10uM) was 1.05.

With `OCCn1cc(-c2cnc3nnn(Cc4ccc5ncccc5c4)c3n2)cn1` the fractional viability (2uM) was 1.09 and the fractional viability (10uM) was 1.14.

Molecule `Cc1ncc([N+](=O)[O-])n1CC(C)O` (configuration not stated) [Secnidazole] has a fractional viability (2uM) of 1.26 and a fractional viability (10uM) of 1.26.

`Cc1ccc(C(=O)Nc2ccc(CN3CCN(C)CC3)c(C(F)(F)F)c2)cc1C#Cc1cnc2[nH]ncc2c1` was tested, and the fractional viability (2uM) was 0.589 and the fractional viability (10uM) was 0.115.

For `Oc1ccc(-c2nc(-c3ccc(F)cc3)c(-c3ccncc3)[nH]2)cc1`, the fractional viability (2uM) was 1.48 and the fractional viability (10uM) was 1.09.

`O=C(Nc1ccc(S(=O)(=O)Nc2ccccc2Cl)c(Cl)c1)c1ccccn1` gave a fractional viability (2uM) of 0.907 and a fractional viability (10uM) of 0.714.

`O=C(NC[C@H](O)CO)c1ccncc1Nc1ccc(I)cc1F` showed a fractional viability (2uM) of 0.542 and a fractional viability (10uM) of 0.514.

`Cc1ccc(-n2nc(C(C)(C)C)cc2NC(=O)NCc2cc(F)ccc2Oc2ccc3c(cnn3CCO)c2)cc1` [Pexmetinib (ARRY-614)] gave a fractional viability (2uM) of 0.722 and a fractional viability (10uM) of 0.759.

Work on `CC1(C)S[C@@H]2[C@H](NC(=O)[C@H](N)c3ccccc3)C(=O)N2[C@H]1C(=O)O` [Ampicillin sodium] yielded a fractional viability (2uM) of 0.875 and a fractional viability (10uM) of 0.926.

`CC1(C)S[C@@H]2[C@H](NC(=O)[C@H](N)c3ccccc3)C(=O)N2[C@H]1C(=O)O` [Ampicillin Trihydrate] was tested, and the fractional viability (2uM) was 1 and the fractional viability (10uM) was 0.972.

Molecule `O=C(O)c1cc(=O)[nH]c(=O)[nH]1` [Orotic acid (6-Carboxyuracil)] has a fractional viability (2uM) of 1.07 and a fractional viability (10uM) of 1.13.

With `Cc1ccccc1C(C(=O)NC1CCCCC1)N(C(=O)Cn1ccnc1C)c1cccc(F)c1` (configuration not stated) the fractional viability (2uM) was 0.97 and the fractional viability (10uM) was 0.888.

With `Nc1c(CC(=O)O)cccc1C(=O)c1ccc(Br)cc1` [Bromfenac Sodium] the fractional viability (2uM) was 0.899 and the fractional viability (10uM) was 0.953.

For `COc1cccc(Nc2c(C(N)=O)cnc3c(C)cc(S(=O)(=O)c4cccc(C(=O)N(C)C)c4)cc23)c1`, the fractional viability (2uM) was 0.745 and the fractional viability (10uM) was 0.751.

With `C[C@H]1O[C@@H](n2cc(F)c(=O)[nH]c2=O)[C@H](O)[C@@H]1O` [Doxifluridine] the fractional viability (2uM) was 1.5 and the fractional viability (10uM) was 1.24.

`CC(C)(C)c1nc(-c2cccc(NS(=O)(=O)c3c(F)cccc3F)c2F)c(-c2ccnc(N)n2)s1` gave a fractional viability (2uM) of 0.709 and a fractional viability (10uM) of 0.749.

Work on `O=c1c(-c2ccc(O)cc2)coc2cc(O)ccc12` [Daidzein] yielded a fractional viability (2uM) of 0.931 and a fractional viability (10uM) of 0.846.

In the case of `CC1(C)CC[C@]2(C(=O)O)CC[C@]3(C)C(=CC[C@@H]4[C@@]5(C)CC[C@H](O)C(C)(C)[C@@H]5CC[C@]43C)[C@@H]2C1` [Oleanolic Acid], the fractional viability (2uM) is reported as 0.917 and the fractional viability (10uM) is reported as 0.973.

For `O=C(O)CCCCC(CCSCc1ccccc1)SCc1ccccc1` (configuration not stated), the fractional viability (2uM) was 1.23 and the fractional viability (10uM) was 0.919.

In the case of `O=C(Oc1ccccc1C(=O)O)c1ccccc1O` [Sasapyrine], the fractional viability (2uM) is reported as 1.16 and the fractional viability (10uM) is reported as 0.903.

`COc1c(C)c2c(c(O)c1C/C=C(\C)CCC(=O)O)C(=O)OC2` [Mycophenolic acid] was tested, and the fractional viability (2uM) was 0.66 and the fractional viability (10uM) was 0.536.

`CS(=O)(=O)c1ccc(-c2cnc(N)c(C(=O)Nc3ccccc3)n2)cc1` was tested, and the fractional viability (2uM) was 0.833 and the fractional viability (10uM) was 0.688.

`CN(C)CCOc1ccc(-c2nc(-c3ccncc3)c(-c3ccc4c(c3)CC/C4=N\O)[nH]2)cc1` showed a fractional viability (2uM) of 0.833 and a fractional viability (10uM) of 0.0595.

For `C[C@H](Cc1cc2c(c(C(N)=O)c1)N(CCCO)CC2)NCCOc1ccccc1OCC(F)(F)F` [Silodosin], the fractional viability (2uM) was 1.06 and the fractional viability (10uM) was 0.995.

Work on `C/C(=C\C(=O)Nc1ccccc1C(=O)O)c1ccc2ccccc2c1` yielded a fractional viability (2uM) of 1.15 and a fractional viability (10uM) of 1.05.

`O=C(c1ccc(/C=C/c2n[nH]c3ccccc23)cc1)N1CCNCC1` showed a fractional viability (2uM) of 1.21 and a fractional viability (10uM) of 1.07.

`Cc1ccc(-n2sc(=O)n(Cc3ccc(F)cc3)c2=O)cc1` was tested, and the fractional viability (2uM) was 0.801 and the fractional viability (10uM) was 0.457.

`Cc1cc(Cl)ccc1OCCCC(=O)NO` [Droxinostat] gave a fractional viability (2uM) of 1.07 and a fractional viability (10uM) of 0.965.

In the case of `O=C(NCCN1CCOCC1)c1ccc(Cl)cc1`, the fractional viability (2uM) is reported as 0.892 and the fractional viability (10uM) is reported as 0.854.

With `COc1ccc2c(c1)c(CC(=O)N1CCOCC1)c(C)n2C(=O)c1ccc(Cl)cc1` the fractional viability (2uM) was 0.923 and the fractional viability (10uM) was 0.939.

`OC(c1cc(C(F)(F)F)nc2c(C(F)(F)F)cccc12)C1CCCCN1` (configuration not stated) [Mefloquine HCl] was tested, and the fractional viability (2uM) was 1.17 and the fractional viability (10uM) was 0.2.

Work on `CC[C@H]1OC(=O)C[C@@H](O)[C@H](C)[C@@H](O[C@@H]2O[C@H](C)[C@@H](O)[C@H](N(C)C)[C@H]2O)[C@@H](CCN2C[C@H](C)C[C@H](C)C2)C[C@@H](C)C(=O)/C=C/C(C)=C/[C@@H]1CO[C@@H]1O[C@H](C)[C@@H](O)[C@@H](OC)[C@H]1OC` [Tilmicosin] yielded a fractional viability (2uM) of 1.49 and a fractional viability (10uM) of 1.66.
